# From the RNAGym collection of RNA variant scans (doi:10.7554/elife.90254)
# The source gives no read counts; variants with many changes may rest on few reads.
# B1: LINE1-mini (parent)
# chain: GGCAGAGCUCAACACAGCGUGGCAAAGUGGCUGUGGCUAGACUGCC
# Variants of: B1
# Assay: self-cleavage, relative activity (ratio to wild type); higher = more cleavage; in vitro, sequencing; the parent is a self-cleaving ribozyme
row,Variant,self-cleavage
1,G17U A24U C42U,0.06
2,A25U C31G G40U C46U,0.02
3,G1U G7U C37U,0.01
4,G2A C3U A14G,0.5
5,C18U U32G U43G,0.05
6,C3U A25C G40C,0.06
7,C23U U34C U38G,0.01
8,C15G G27U C37G G44C C45U,0
9,G2C C13U G17C C18U G27C,0.11
10,G2C G17A G19A G22C G35A C42U,0.09
11,A14G G19A U28G C42G,0.02
12,A4G C13U G35C U38A,0.04
13,A12U G36A G40U G44C,0.03
14,G36U U38G A39U,0
15,A16G A25G U38A,0.53
16,A4C G21A C37A G44A,0.11
17,U9A G36C C46A,0.1
18,C10G U34G A39U G40A,0.02
19,A24C G29C C37U,0.02
20,G1U C15G A26U,0.02
21,C10A U28G C31U,0.2
22,C3G U20G A26U G29C C31G G35A,0.08
23,G2A A14U A24C A39G,0.11
24,G17U G21U C31G,0.29

row,Variant,self-cleavage
1,A4C C8A C18A,0.14
2,G27A U43A G44A,0.02
3,A12G U20A A26G,0
4,A6C G17U G35A,0.03
5,G21C U34G C46G,0.14
6,C3U A24U G35A G36U,0.04
7,G17C U20A G27A,0.56
8,G1U A12C G19A G40A,0.01
9,A4C G5A A16C C18U A26U U28A G44C,0.02
10,A12U A16G G19U G35A G40C,0.03
11,G1A C3A A4C U9A C18U G19C A25C,0.24
12,G2U G7A C37G,0.05
13,G5U C13A G29A,0.1
14,U20A A25G G30U U38C,0.22
15,A11C A12U A39G C42A C46A,0.01
16,C13U U32C C46A,0.01
17,C3U G27A G35A,0.18
18,C8A C18G U20A C45A,0.15
19,A12C A16U U28G G30A U32C C37G C45G,0
20,A16U C31G A41C C42G,0.03
21,C3U U38A C46G,0.03
22,G2A A14U A39C,0.06
23,A16G C18G G40C,0.17
24,C13A C37G U43A,0.08

row,Variant,self-cleavage
1,U9A C37G G40U G44U,0.12
2,C3A C23U U34A,0.11
3,C10A C18G G35U C37U C45A,0.01
4,A11U A12C C42U,0.03
5,A4G A14G C37U,0.06
6,U9G G21C G40A C46A,0.1
7,A12G A24G G29C G30C U32G G35A C45A,0.01
8,G5A C15U U32A G33U C46U,0.07
9,A25C A39U A41G,0.33
10,G5U C8G G44U,0.09
11,G2A U20A A39U,1.22
12,C3A G7U U9C C13G G40U G44U,0.01
13,A6U G17U G35A C37U,0.11
14,G22A C31U U32A,0.08
15,C3U A4C C8U,0.83
16,G17U C31G U32A C45A,0.04
17,A16U G22U G40A,0.96
18,A14C G17A C45G,0.1
19,G5A A24G U38A A39G G44C,0.04
20,C13U G22U C23A,0.15
21,A6G C8G G21U U34G G35U G40U C42U,0.02
22,C18A U20C G35C G40A,0.07
23,U9C G33A C45G,0.01
24,C3G C10U C45A,0.13

row,Variant,self-cleavage
1,A6U C15U G29A C31U U38C,0.16
2,G17C C18U A26U G27C,0.42
3,C10G G17C G21U C46A,0.33
4,A6U U34C C45G,0.11
5,G2U C3A C18G A26G G30A A41G,0.02
6,C3A C8A C46U,0.84
7,G7A U34C A41G,0.32
8,C8U A39U G44A,0.04
9,C15U G17U G30A U34A G35C,0.01
10,G1A G7U G33C,0.3
11,C3U G17C G27C A39U C45U,0.08
12,C3U G19A U34G,0.03
13,G19U A24C G30C,1.02
14,C8A A16C A26G,0.06
15,G5C C23A A25C G27A G30A,0.02
16,A4G A12C A24G U38C,0.15
17,C3U A16G G22C C46G,0.03
18,C8G C18A G36C,0.02
19,G7C C13U G17U U28G C31U C45A,0.13
20,A12C C18A U34G G44C,0.01
21,G21A C31A C37G U43C,0.05
22,G22U A26C U32C,0.16
23,C10A G33A U38A,0.03
24,G1A A4G C10U A12U A14U,0.06

row,Variant,self-cleavage
1,C15A G30U U43C,0.02
2,G19A G29U A39G,0.08
3,C3G C15U C18U G29A C37U,0.14
4,U9G C23U U38A U43A,0.01
5,U9G U20A G22A U28A,0.06
6,A4C C15A A39G,0.15
7,G27C U28A G29C C45A,0.8
8,U9A C10G C13G A41G,0.01
9,C8A G22A G27A C42U,0.17
10,A14U A25U C42G C45U,0.01
11,A6U A14U G17U A24U,0.09
12,C13G C18A G36A C42U,0.02
13,A6U G7C C23U G27U G40C,0.15
14,C3U G33A A41G,0.09
15,C10A C13A C15A G35U,0.03
16,G1C C8A G44U,0.06
17,G1C U32C C42U,0.01
18,C8A U20A C31A C37U G44U,0.08
19,C3U C13A A39U,0.38
20,G2C A14C G44U,0.01
21,G5C C18A G22C C46G,0.02
22,C15U U34G C42U G44C,0.03
23,A4C C8U G35C,0.06
24,G7U U34A A39U G40A,0.09

row,Variant,self-cleavage
1,U9C C23A U28G U32A,0.01
2,G7U C8G A16U C18U G40U,0.04
3,G21U U38C G44U,0.37
4,A11G A12U C15U U38G,0
5,G5C A11C U43C,0.02
6,C10A G22C G36U,0.02
7,C8G A11G C18G C45A,0.02
8,G30U G33U G44U,0.05
9,A26G G33U A41U C42A,0.05
10,G1U A25U A41C,0.02
11,C15A C23G U38C,0.02
12,A4C A11C A39G,0.04
13,G5U G30U U32A A41G,0.01
14,C10U A26C G30A,0.7
15,A16C G22U G29C G35U A41U,0.01
16,A6U C13G A25U C31A,0.02
17,G19U U28C C37U C45U C46G,0.04
18,C3U C8A C37A U38C C45U,0.49
19,G17A G27U G29U U43A,0.12
20,C10U C23G A25G C42U,0.24
21,C3A G19C A25U G29A G44A,1.14
22,A4C A12C A14U,0.08
23,G22A U28G G35A A41G C46G,0.1
24,G5A C8G U9G A16G U28A,0.12

row,Variant,self-cleavage
1,C31U U43C C46U,0.05
2,C15A A16C G22C A26C A39C,0.02
3,G1C G27A G33U,0.01
4,A4C C10U G30U,0.02
5,A6U G7U A26C G40U C45U,0.14
6,C3A U9A A26C C31A,0.08
7,A4U C18A G35C,0.05
8,G2C G17C C23G,0.04
9,C15G C18U C37G C45U,0.01
10,A14G C18A G21A G27U C31G G33A C37A,0.02
11,C3U G27A G29A C46U,0.61
12,C15G G33C A39G C45G C46U,0.01
13,G5C U38G A39U,0.05
14,C13A C15U A24U U38A A39C G44C,0.1
15,A11U C15A A26G G40C,0
16,C8A A41C C42U,0.23
17,G5U A11U A14G G29U,0
18,C13U A16U U32A,0.04
19,C15G G17U G22C G27A A41C,0.04
20,G1A U20A A26G,0.01
21,G17U G22A G35A,0.04
22,G2C C18U A24U A39C G44C,0.04
23,A4G A16C U38C U43G,0
